Reference: patent US20230346743A1, “COMBINATION CANCER THERAPIES” (The Board of Regents of the University of Oklahoma, priority 2018, published 2023)

Test system: SKOV3 R248W p53
Experiment: cells
Conditions: Homo sapiens, SK-OV-3

O=C1C2CCN(CC2)C1(CO)CO [PRIMA-1, 2,2-Bishydroxymethyl-1-azabicyclo[2.2.2]octan-3-one]
IC50: 20 µM
